Paper PMC4336329 (PLoS ONE, 2015)
The campaign covered roughly 310,000 compounds. About 14,000 (4.5%) showed an effect of 50% or more. The effect is printed as a negative number. Some of the results follow.

Each molecule was assayed against human ether-à-go-go-related gene (hERG) potassium channel (human, UniProt Q12809) (assay: primary screen, population patch clamp on CHO cells stably expressing hERG).
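Also: peak tail current of the secondary pulse compared with the same well before compound.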

human ether-à-go-go-related gene (hERG) potassium channel, sequence (Q12809 whole entry, looked up): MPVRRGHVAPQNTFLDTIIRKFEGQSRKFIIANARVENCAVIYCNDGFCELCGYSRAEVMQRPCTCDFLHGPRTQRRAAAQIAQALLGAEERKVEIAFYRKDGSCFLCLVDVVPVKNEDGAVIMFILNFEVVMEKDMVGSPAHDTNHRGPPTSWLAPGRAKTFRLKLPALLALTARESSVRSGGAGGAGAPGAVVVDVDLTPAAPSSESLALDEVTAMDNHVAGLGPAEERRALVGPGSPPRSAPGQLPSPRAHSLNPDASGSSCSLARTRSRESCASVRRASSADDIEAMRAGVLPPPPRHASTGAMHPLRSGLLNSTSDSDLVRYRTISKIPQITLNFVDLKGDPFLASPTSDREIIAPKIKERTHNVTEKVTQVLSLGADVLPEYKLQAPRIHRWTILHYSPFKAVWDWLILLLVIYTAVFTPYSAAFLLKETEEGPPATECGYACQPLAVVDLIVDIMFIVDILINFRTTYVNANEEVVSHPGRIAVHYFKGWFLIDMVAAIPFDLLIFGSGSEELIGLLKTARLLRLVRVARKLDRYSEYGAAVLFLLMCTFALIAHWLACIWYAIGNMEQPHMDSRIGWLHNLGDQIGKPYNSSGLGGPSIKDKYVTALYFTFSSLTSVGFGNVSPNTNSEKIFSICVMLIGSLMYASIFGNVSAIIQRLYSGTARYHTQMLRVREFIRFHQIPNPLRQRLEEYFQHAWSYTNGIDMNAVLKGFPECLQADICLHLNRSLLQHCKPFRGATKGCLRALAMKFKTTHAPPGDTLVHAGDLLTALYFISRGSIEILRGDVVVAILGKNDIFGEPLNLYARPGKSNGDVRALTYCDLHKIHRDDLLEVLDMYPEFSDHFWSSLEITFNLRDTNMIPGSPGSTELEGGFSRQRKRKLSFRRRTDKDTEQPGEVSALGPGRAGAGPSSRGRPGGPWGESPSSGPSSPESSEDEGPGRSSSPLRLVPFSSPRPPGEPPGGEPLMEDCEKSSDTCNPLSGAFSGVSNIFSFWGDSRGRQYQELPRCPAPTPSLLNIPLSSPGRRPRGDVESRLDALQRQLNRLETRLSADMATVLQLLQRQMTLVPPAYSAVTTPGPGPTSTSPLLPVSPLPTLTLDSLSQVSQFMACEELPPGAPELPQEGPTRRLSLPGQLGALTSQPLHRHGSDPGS

| SMILES | hERG current change (%, negative = inhibition) at 10uM |
| --- | --- |
| CC(C)N1CCC(N2CCN(Cc3ccc4nsnc4c3)CC2CCO)CC1 (stereo not shown) | -8.62% |
| O=C(CSc1nccn(-c2ccc(Br)cc2)c1=O)NC1CCCC1 | 13.7% |
| COCCSc1nnc(NS(=O)(=O)Cc2ccccc2)s1 | -10.3% |
| COC(=O)c1sc(NC(=O)c2ccc(Cn3cc(Cl)cn3)o2)c(C#N)c1C | 14.4% |
| O=CC(Br)P(=O)(N1CCOCC1)N1CCOCC1 (stereo not shown) | 3.6% |
| CC(=O)Nc1ccc(S(=O)(=O)NCCC(=O)N2CCN(C(c3ccccc3)c3ccccc3)CC2)cc1 | -8.45% |
| O=C(CSCc1c[nH]c(=O)[nH]c1=O)OCC(=O)c1ccc(Br)cc1 | 10.5% |
| O=C(NCCc1ccccc1)Nc1ccc(Cl)cc1 | 11% |
| Cc1nc(C)n(C(C)CC(=O)O)n1 (stereo not shown) | 2.45% |
| COc1cc(C(O)P(=O)(OCC(C)C)c2ccc(N(C)C)cc2)cc(OC)c1OC (stereo not shown) | 5.84% |
| COc1ccc(S(=O)(=O)N2CCN(c3ncccn3)CC2)cc1 | -5.12% |
| CCN(CC)C(=O)Cn1cc(S(=O)(=O)CC(=O)Nc2ccc(F)cc2)c2ccccc21 | -17.7% |
| Cc1ccc(S(=O)Cc2ccc(C(=O)N3CCN(C4CCCCC4)CC3)o2)cc1 (stereo not shown) | -15.9% |
| CCc1nnc(N/N=C/c2cc(Br)c(O)cc2O)n1N | 17.2% |
| CCCc1nc2ccccc2c(C(=O)OCC(=O)Nc2cccc(S(=O)(=O)N3CCOCC3)c2)c1CC | 11.3% |
| O=C(NCc1ccco1)c1ccc(COCC(F)(F)C(F)F)cc1 | -13.6% |
| O=S(=O)(NCc1nnc2c(C(F)(F)F)cc(Cl)cn12)c1ccccc1 | 0.193% |
| CCCOc1ccc(C2Nc3cccc4cccc(c34)N2)cc1 | 10.7% |
| CCOC(=O)c1sc(NC(=O)C2CC(=O)N(c3ccc(OC)cc3)C2)nc1C (stereo not shown) | -17.2% |
| Cc1ccc(S(=O)(=O)Nc2cccc(C(=O)NCC(c3ccccc3)N(C)C)c2)cc1F (stereo not shown) | -45.8% |
| COc1ccc(S(=O)(=O)NC(C)c2ccccc2)cc1C(=O)N1CCCCC1 (stereo not shown) | 7.84% |
| Cc1c(C)c2ccc(OCC(=O)NC(Cc3c[nH]c4ccc(O)cc34)C(=O)O)c(C)c2oc1=O (stereo not shown) | 4.8% |

| SMILES | hERG current change (%, negative = inhibition) at 10uM |
| --- | --- |
| COc1ccc(OCC(O)CN2C(=O)c3ccccc3C2=O)cc1 (stereo not shown) | 8.41% |
| COc1ccc(NC(=O)c2ccco2)cc1NC(=O)c1cccs1 | -20% |
| CSc1ccccc1NC(=O)Nc1ccc(F)c(Cl)c1 | -3.66% |
| CC1(C)Cc2cccc(OCC(=O)OCc3nnc(-c4ccc([N+](=O)[O-])cc4)o3)c2O1 | -40.5% |
| CC1=CC(C)(C)Nc2ccc(OC(=O)C(C)N3C(=O)c4ccccc4C3=O)cc21 (stereo not shown) | -12.3% |
| CCCC[C@@H]1CNC(=S)N1CC1CCCCC1 | 6.32% |
| COc1ccccc1S(=O)Cc1ccc(C(=O)O)o1 (stereo not shown) | 1.57% |
| CSc1ccc(C#N)cc1NC(=O)c1ccc(Cl)cc1 | -0.0481% |
| Clc1ccc(-c2cn3cc(Cl)ccc3n2)cc1 | 18.4% |
| O=S1(=O)[C@H]2C[C@@H]3C=C[C@@]2(CN1Cc1ccccc1F)O3 | 17.8% |
| CNC(=S)NNC(=O)c1sccc1OCc1cccc(C(F)(F)F)c1 | 17.5% |
| Cc1ccc(/C=N\NC(=O)/C(=C\Nc2nccc(C)n2)NC(=O)c2ccccc2)cc1 | -9.72% |
| CCC(=O)Nc1ccc(C(=O)NNC(=O)Cc2ccccc2)cc1 | -13.3% |
| O/N=C1\CCCc2oc3c(c21)CCCC3 | 3.38% |
| COc1ccc2cnn(Cc3ccccc3)c(=O)c2c1OC | 15.2% |
| COC(=O)c1ccccc1NC(=O)CSc1ncn[nH]1 | 5.62% |
| CCOC(=O)CSc1nnc(NC(=O)NC(C)C)s1 | 5.74% |
| CCOc1cccc(CN2CCCC(C(=O)Nc3cccc(-n4cccn4)c3)C2)c1 (stereo not shown) | -56.3% |
| C=CCn1c(SCc2ccc(C#N)cc2)nnc1-c1cccc(OC)c1 | -67.4% |
| CCOc1ccc(CCNC(=O)CN2CCN(Cc3ccccc3C)C2=O)cc1OCC | -12% |
| Cn1c(C(=O)NC2CCCCC2)cc2c(=O)n3ccccc3nc21 | 4.32% |
| CCC1=NN2C(=N)/C(=C\c3cccn3-c3cccc(Cl)c3)C(=O)N=C2S1 | -11.5% |

| SMILES | hERG current change (%, negative = inhibition) at 10uM |
| --- | --- |
| CC(=O)Nc1c(C(=O)N2CCOCC2)sc2nc3c(cc12)COC(C)(C)C3 | 8.68% |
| COc1ccc(S(=O)(=O)NCCc2cn3nc(C)c(C)nc3n2)cc1 | 20.2% |
| CN(C)c1ccc(C(=S)N2CCN(c3ccccc3)CC2)cc1 | 12.6% |
| Cc1ccc(NC(=O)CCN2C(=O)C3CCCCC3C2=O)c(O)c1 (stereo not shown) | 11.9% |
| O=C(CCOc1ccccc1)Nc1ccnn1C1CCN(C(=O)CCC(F)(F)F)CC1 | 3.61% |
| COc1ccc(C2CC2/C(=N/OC(=O)c2cccs2)c2ccccc2)cc1 (stereo not shown) | 4.13% |
| O=C(CN1CCN(Cc2ccccc2)CC1)c1c[nH]c2ccccc12 | -56.5% |
| CCN(CC)S(=O)(=O)c1ccc(NC(=O)COC(=O)CN2C(=O)c3ccccc3C2=O)cc1 | -31.2% |
| FC(F)C(F)(F)C(F)(F)C(F)(F)c1cc(-c2ccccc2)n[nH]1 | -16.9% |
| COc1cc(OC)c(OC)cc1/C=N/NC(=O)c1ccc(=O)n(C)c1 | 3.8% |
| CC(OC(=O)Cc1c(F)cccc1Cl)C(=O)NCCC1=CCCCC1 (stereo not shown) | -25.7% |
| CCN(CC)C(=O)Cn1c(=O)n(-c2ccc(CC(=O)NCc3ccccc3)cc2)c(=O)c2sccc21 | 18% |
| CNC(=S)N1CCc2cc(OC)c(OC)cc2C1 | -3.93% |
| Cc1ccc(CNC(=O)CN2C(C)CCCC2C)cc1 (stereo not shown) | -0.842% |
| O=C(C(=O)N1CCOCC1)c1cn(Cc2ccccc2F)c2ccccc12 | 10.8% |
| O=C(Nc1cccc(C(=O)O)c1)/C(=C/c1ccc([N+](=O)[O-])cc1)NC(=O)c1ccccc1 | -5.36% |
| Cn1cc(CC(=O)NCCCN2CCCC2=O)c2ccccc21 | -3.58% |
| Cc1ccccc1NS(=O)(=O)c1cc(C(=O)NCc2ccco2)ccc1C | -20.3% |
| CN(C)C(=O)[C@H]1C[C@H]1[C@@H](O)[C@H](CO)NC(=O)[C@H](COCc1ccccc1)NC(=O)OC(C)(C)C | 11.3% |
| COc1cccc(-c2nnn(CC(C)=O)n2)c1 | -2.29% |
| CN(C)S(=O)(=O)c1ccc(-c2csc(-c3cccnc3)n2)cc1 | -34.6% |
| S=C(NCc1ccncc1)Nc1ccc(Cl)cc1 | -0.853% |

| SMILES | hERG current change (%, negative = inhibition) at 10uM |
| --- | --- |
| COc1ccc(/C=C2\CN(Cc3ccccc3)C/C(=C\c3ccc(OC)c(O)c3)C2=O)cc1O | 9.53% |
| CCC(=O)N1CCc2cc(Br)cc(S(=O)(=O)Nc3c(C)n(C)n(-c4ccccc4)c3=O)c21 | 5.02% |
| Cc1ccccc1CSCC(=O)NC(=O)NC(C)(C)C | -15.6% |
| CC(=O)c1ccc(N2CCN(C(=O)c3ccc(OCc4c(C)noc4C)cc3)CC2)cc1 | 4.7% |
| Cc1ccc(NC(=O)C2CCN(S(=O)(=O)c3cnc[nH]3)CC2)nc1 | 9.52% |
| CCN(C(=O)CSc1nnc(-c2ccncc2)n1C)C1CCS(=O)(=O)C1 (stereo not shown) | 15.8% |
| COc1ccc(Cn2c(C)c(C)c(C#N)c2NC(=O)Nc2cccc(C)c2)cc1 | 10.2% |
| N#Cc1nc(-c2ccco2)oc1N1CCc2ccccc2C1 | 11.2% |
| CCN(CC)C(=O)CSc1nc(O)c(Cc2ccc(OC)cc2)c(=O)[nH]1 | 11.3% |
| CCOc1ccc(CCNC(=O)C(CC)n2nc(C)n3c(cc4sccc43)c2=O)cc1OCC (stereo not shown) | -22.5% |
| Cc1cc2nc(/N=C(\N)NC(=O)C(C)C)nc(C)c2cc1C | 18.8% |
| C[C@@H]1CN(Cc2nc(-c3ccc(Cl)cc3)no2)C[C@H](C)O1 | -3.01% |
| CC1=CCC2C(=O)N(c3cccc(C(=O)Nc4ccc(Cl)cc4)c3)C(=O)C2C1 (stereo not shown) | -17% |
| COc1cccc(C(=O)N2CCN(CCCc3ccccc3)CC2)c1OC.O=C(O)C(=O)O | -46.7% |
| COC(=O)[C@@H]1C[C@H]2CC[C@H](O)C[C@H]2N1Cc1ccc(C)s1 | 5.65% |
| CC(C)(C)OC(=O)NCCc1nnc(SCc2cccc(Cl)c2)o1 | -1.84% |
| CN(Cc1cccc([N+](=O)[O-])c1)Cc1cccc2ccccc12 | 11% |
| COc1ccc(C2=NS(=O)(=O)N(C)C(C(=O)N3CCC(C)CC3)=C2)cc1 | -41.2% |
| Cc1ccccc1C(=O)c1cccn1CC(=O)NCc1ccc2c(c1)OCO2 | 14% |
| COC(CNC(=O)C1CCCN1C(=O)OCc1ccccc1)OC (stereo not shown) | 5.41% |
| COc1ccc2nc3cccc(OC)c3nc2c1 | 12.7% |
| CN(Cc1nc2ccccc2c(=O)[nH]1)C(=O)COc1ccccc1Cc1ccccc1 | -43.3% |
